Measurements reported in PubChem BioAssay (Tox21).
Inconclusive means that the source gave no clear call. Such entries were picked first, then a sample of the others. For some of these results: Potencies beside an inconclusive call are fits to weak or partial responses and may not hold up. Activity calls are given as the source filed them. Unless noted, calls follow the shape of the dose curve; as a rule, active = well fitted curve in the direction sought with a large enough effect in the repeat runs; inconclusive = weak or mixed curves; inactive = no such curve, though single readings can be large; an effect the other way counts as inactive or inconclusive.

Tests used:
[1] = qHTS assay to identify small molecule antagonists of the estrogen related receptor (ERR) signaling pathway from Tox21 library - cell viability counter screen (AID 1224834); also: potency is read from the fitted curve at half-maximal effect; nearly all actives have a fitted effect of over 30% in size
Procedure, shortened: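 Fluorescence from CellTiter-Fluor gives the viability read-out, taken 30 min after reagent addition. Before that, ERR cells seeded 6 h earlier were incubated with compounds for 17.5 h at 37 C.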

[2] = target: Luciferin 4-monooxygenase (Photinus pyralis) (UniProt P08659); experiment: qHTS assay to identify small molecule inhibitors of firefly luciferase (AID 1224835); also: potency is read from the fitted curve at half-maximal effect; nearly all actives have a fitted effect of over 25% in size
Sequence of UniProt P08659 (P08659 whole entry, looked up): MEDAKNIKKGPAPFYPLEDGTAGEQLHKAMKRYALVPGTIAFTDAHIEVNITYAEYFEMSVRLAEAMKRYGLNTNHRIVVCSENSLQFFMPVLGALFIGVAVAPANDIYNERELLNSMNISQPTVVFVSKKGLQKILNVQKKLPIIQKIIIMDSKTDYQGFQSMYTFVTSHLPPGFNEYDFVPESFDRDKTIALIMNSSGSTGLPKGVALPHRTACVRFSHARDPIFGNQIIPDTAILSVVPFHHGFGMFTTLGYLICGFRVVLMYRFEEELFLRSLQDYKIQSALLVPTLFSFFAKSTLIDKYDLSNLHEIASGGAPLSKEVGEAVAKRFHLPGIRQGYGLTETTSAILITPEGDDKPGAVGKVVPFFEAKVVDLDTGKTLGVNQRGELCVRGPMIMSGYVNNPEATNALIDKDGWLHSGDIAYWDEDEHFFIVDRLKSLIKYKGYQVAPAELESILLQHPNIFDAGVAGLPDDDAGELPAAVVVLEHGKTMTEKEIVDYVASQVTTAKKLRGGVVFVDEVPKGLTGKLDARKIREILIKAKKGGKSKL
Procedure, shortened: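 Biochemical qHTS: compounds run as interplate titrations against purified firefly enzyme, with D-luciferin and ATP each at its KM concentration. Light output recorded by CCD imaging.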

[3] = qHTS RealTime-Glo MT Cell Viability Assay in HEK293 cells - 16 hour (AID 1224872); also: nearly all actives have a fitted effect of over 50% in size; also: potency is read from the fitted curve at half-maximal effect
Procedure, shortened: (§1)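 HEK293 cells were seeded at 600 cells/well together with NanoLuc luciferase and cell-permeant prosubstrate, preincubated 5 h at 37 C/5% CO2, then given compound in DMSO by pintool. Luminescence from viable-cell prosubstrate reduction was read repeatedly over 40 h.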

[4] = qHTS RealTime-Glo MT Cell Viability Assay in HEK293 cells - 24 hour (AID 1224886); also: potency is read from the fitted curve at half-maximal effect; nearly all actives have a fitted effect of over 50% in size
Procedure, shortened: as §1

[5] = qHTS RealTime-Glo MT Cell Viability Assay in HEK293 cells - 8 hour (AID 1224887); also: nearly all actives have a fitted effect of over 50% in size; also: potency is read from the fitted curve at half-maximal effect; as to activity change, negative = cytotoxicity: top concentration of the series differs between compounds; % is scaled to controls: 0 for no effect and ±100 for the full control effect
Procedure, shortened: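 Cells were seeded together with NanoLuc luciferase and a prosubstrate that viable cells reduce to a luciferase substrate. After a 5 h incubation at 37 C/5% CO2, compounds were added and luminescence was measured repeatedly during 40 h of treatment.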

[6] = qHTS assay to identify small molecule agonists of the sonic hedgehog signaling (Shh) pathway - cell viability counter screen (AID 1259366); also: nearly all actives have a fitted effect of over 50% in size; also: potency is read from the fitted curve at half-maximal effect
Procedure, shortened: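 Same-well cytotoxicity read. Gli1-Luc reporter 3T3 cells; compounds 24hr, 37C/5% CO2; CellTiter-Fluor fluorescence.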

[7] = Caspase-3/7 induction in HepG2 cells by small molecules, qHTS cell viability counter screen (AID 1346981); also: nearly all actives have a fitted effect of over 30% in size; also: potency is read from the fitted curve at half-maximal effect
Procedure, shortened: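 HepG2, WT, 2,000 cells/well; 5 hr pre-incubation 37 C/5% CO2; compound pin-transferred from DMSO; 16 hr exposure; CellTiter-Fluor, 1 hr; fluorescence read.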

[8] = target: Nuclear receptor subfamily 1 group I member 2 (Homo sapiens) (UniProt O75469); experiment: Human pregnane X receptor (PXR) small molecule agonists, qHTS assay (AID 1346982); also: nearly all actives have a fitted effect of over 35% in size; also: potency is read from the fitted curve at half-maximal effect
Sequence of UniProt O75469 (O75469 whole entry, looked up): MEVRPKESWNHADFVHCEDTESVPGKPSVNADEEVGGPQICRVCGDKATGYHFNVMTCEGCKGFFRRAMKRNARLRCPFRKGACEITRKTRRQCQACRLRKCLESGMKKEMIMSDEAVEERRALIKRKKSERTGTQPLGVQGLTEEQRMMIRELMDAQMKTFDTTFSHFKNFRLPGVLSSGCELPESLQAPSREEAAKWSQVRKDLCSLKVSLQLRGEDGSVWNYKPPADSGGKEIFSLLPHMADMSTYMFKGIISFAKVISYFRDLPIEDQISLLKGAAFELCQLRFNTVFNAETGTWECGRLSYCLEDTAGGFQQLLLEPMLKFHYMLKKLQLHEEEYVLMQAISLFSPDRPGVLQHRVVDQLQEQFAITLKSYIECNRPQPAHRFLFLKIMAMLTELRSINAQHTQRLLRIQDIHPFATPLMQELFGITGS
Procedure, shortened: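 Luciferase signal from ONE-Glo (30 min, room temperature) measured activation of hPXR-driven CYP3A4 reporter expression in PXR-Luc HepG2 cells treated with compounds for 24 hr at 37 C.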

[9] = target: Estrogen receptor (Homo sapiens) (UniProt P03372); experiment: qHTS assay to identify small molecule agonists of the estrogen receptor alpha (ER-alpha) signaling pathway using the BG1 cell line (AID 743079); details: BG1Luc4E2 cells, ERE-luciferase agonist, 22 h; activation: at 70.3 µM (top of the series) unless noted; also: % is scaled to controls: 0 for no effect and ±100 for the full control effect; nearly all actives have a fitted effect of over 20% in size
Sequence of UniProt P03372 (P03372 whole entry, looked up): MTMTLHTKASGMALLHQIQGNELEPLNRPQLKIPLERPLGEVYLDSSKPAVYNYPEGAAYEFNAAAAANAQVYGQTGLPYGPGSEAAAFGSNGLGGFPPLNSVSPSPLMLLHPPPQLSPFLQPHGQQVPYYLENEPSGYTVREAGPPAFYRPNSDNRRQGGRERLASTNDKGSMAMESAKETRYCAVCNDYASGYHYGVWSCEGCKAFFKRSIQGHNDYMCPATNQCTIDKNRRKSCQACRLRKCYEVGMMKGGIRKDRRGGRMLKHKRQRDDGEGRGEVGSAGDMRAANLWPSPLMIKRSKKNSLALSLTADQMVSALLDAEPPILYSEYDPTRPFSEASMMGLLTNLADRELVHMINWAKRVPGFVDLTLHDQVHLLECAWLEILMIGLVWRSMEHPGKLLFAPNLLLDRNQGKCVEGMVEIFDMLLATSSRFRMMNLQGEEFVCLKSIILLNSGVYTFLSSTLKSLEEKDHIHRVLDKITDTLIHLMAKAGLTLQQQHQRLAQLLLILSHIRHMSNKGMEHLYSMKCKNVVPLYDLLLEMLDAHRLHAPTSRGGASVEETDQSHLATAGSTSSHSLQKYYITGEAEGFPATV

[10] = qHTS assay to identify small molecule agonists of H2AX (AID 1224845; active = well fitted activation curve with a large enough effect in the signal ratio in the repeat runs, not every such curve was filed as active; inconclusive = weak or mixed curves; the % refers to the signal ratio; also: potency is read from the fitted curve at half-maximal effect; as to activation (H2AX phosphorylation): % is scaled to controls: 0 for no effect and ±100 for the full control effect); details: CHO-K1 phospho-H2AX Ser139 HTRF, 3 h; activation (H2AX phosphorylation): at 154 µM (top of the series) unless noted
Procedure, shortened: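 Wild-type CHO-K1 cells, plated overnight, exposed 3hr at 37C to 15 concentrations (0.76% DMSO final). Lysed, then HTRF anti-pH2AX (S139) cryptate and anti-H2AX-d2 antibodies, 24 hr room temperature; 665/620 nm emission read.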

[11] = target: Peroxisome proliferator-activated receptor delta (Homo sapiens) (UniProt Q03181); experiment: qHTS assay to identify small molecule antagonists of the peroxisome proliferator-activated receptor delta (PPARd) signaling pathway (AID 743215; active = well fitted inhibition curve with a large enough effect in the signal ratio in the repeat runs, not every such curve was filed as active; inconclusive = weak or mixed curves, or effect the other way; inactive = no such curve, though single readings can be large or run the other way; the % refers to the signal ratio;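 also: cells stimulated with agonist L165041 at 300 nM final during compound exposure; % is scaled to controls: 0 for no effect and ±100 for the full control effect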); details: HEK293H PPARd-UAS-bla, beta-lactamase FRET ratio, antagonist, 17 h; ratio activity, negative = inhibition: at 62 µM (top of the series) unless noted
Sequence of UniProt Q03181 (Q03181 whole entry, looked up): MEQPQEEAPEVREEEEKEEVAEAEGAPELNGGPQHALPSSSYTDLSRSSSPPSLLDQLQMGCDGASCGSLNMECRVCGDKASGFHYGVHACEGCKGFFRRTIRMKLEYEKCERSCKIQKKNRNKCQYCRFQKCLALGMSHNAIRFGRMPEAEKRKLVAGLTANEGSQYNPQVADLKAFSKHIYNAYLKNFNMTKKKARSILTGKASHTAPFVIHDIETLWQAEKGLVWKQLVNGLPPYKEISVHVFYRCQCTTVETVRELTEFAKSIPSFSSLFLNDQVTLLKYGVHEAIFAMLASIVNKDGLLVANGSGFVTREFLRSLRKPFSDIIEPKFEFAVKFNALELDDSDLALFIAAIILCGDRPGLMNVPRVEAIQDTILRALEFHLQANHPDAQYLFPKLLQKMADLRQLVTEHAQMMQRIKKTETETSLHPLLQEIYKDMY
Procedure, shortened: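 Read-out is beta-lactamase FRET fluorescence, measured 2 h after substrate addition at room temperature. Beforehand, UAS-bla HEK293H cells carrying the PPARd reporter were exposed to compounds with L165041 at 300 nM final for 17 h at 37 C.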

[12] = qHTS assay to identify small molecule antagonists of the progesterone receptor (PR) signaling pathway - cell viability counter screen (AID 1346798); also: nearly all actives have a fitted effect of over 50% in size; also: potency is read from the fitted curve at half-maximal effect
Procedure, shortened: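 Following a 4 hr attachment, PR-UAS-bla HEK293T cells in charcoal-stripped FBS medium were exposed to compounds with R5020 for 16 hr; CellTiter-Glo was added and luminescence read after 30 min at room temperature.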

[13] = qHTS assay to identify small molecule antagonists of the peroxisome proliferator-activated receptor delta (PPARd) signaling pathway - cell viability counter screen (AID 743213); details: PPARd-bla HEK293H viability, CellTiter-Glo luminescence, 17 h; viability change, negative = cytotoxic: at 62 µM (top of the series) unless noted; also: nearly all actives have a fitted effect of over 50% in size; also: potency is read from the fitted curve at half-maximal effect
Procedure, shortened: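 PPARd-bla HEK293H cells were treated with compounds plus agonist L165041 (300 nM final) for 17 h at 37 C. Viability was then read in the same wells by CellTiter-Glo luminescence after 30 min at room temperature.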

[14] = qHTS assay to identify small molecule agonists of the farnesoid-X-receptor (FXR) signaling pathway - cell viability counter screen (AID 743218); details: FXR-bla HEK293T viability, CellTiter-Glo luminescence, 16 h; viability change, negative = cytotoxic: at 62.6 µM (top of the series); also: nearly all actives have a fitted effect of over 45% in size; also: potency is read from the fitted curve at half-maximal effect; as to viability change, negative = cytotoxic: % is scaled to controls: 0 for no effect and ±100 for the full control effect
Procedure, shortened: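 HEK 293T FXR-bla cells; 5 h pre-incubation, 16 h compound exposure at 37 C; LiveBLAzer substrate 2 h RT, then CellTiter-Glo 30 min RT, luminescence.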

[15] = target: Thyrotropin receptor (Homo sapiens) (UniProt P16473); experiment: qHTS assay to identify small molecule agonists of the thyroid stimulating hormone receptor (TSHR) signaling pathway (AID 1224843; calls by dose curve; also: nearly all actives have a fitted effect of over 45% in size; also: potency is read from the fitted curve at half-maximal effect); details: TSHR-HEK293 cells, cAMP HTRF, agonist mode, 30 min; activation: at 92.4 µM (top of the series) unless noted
Sequence of UniProt P16473 (P16473 whole entry, looked up): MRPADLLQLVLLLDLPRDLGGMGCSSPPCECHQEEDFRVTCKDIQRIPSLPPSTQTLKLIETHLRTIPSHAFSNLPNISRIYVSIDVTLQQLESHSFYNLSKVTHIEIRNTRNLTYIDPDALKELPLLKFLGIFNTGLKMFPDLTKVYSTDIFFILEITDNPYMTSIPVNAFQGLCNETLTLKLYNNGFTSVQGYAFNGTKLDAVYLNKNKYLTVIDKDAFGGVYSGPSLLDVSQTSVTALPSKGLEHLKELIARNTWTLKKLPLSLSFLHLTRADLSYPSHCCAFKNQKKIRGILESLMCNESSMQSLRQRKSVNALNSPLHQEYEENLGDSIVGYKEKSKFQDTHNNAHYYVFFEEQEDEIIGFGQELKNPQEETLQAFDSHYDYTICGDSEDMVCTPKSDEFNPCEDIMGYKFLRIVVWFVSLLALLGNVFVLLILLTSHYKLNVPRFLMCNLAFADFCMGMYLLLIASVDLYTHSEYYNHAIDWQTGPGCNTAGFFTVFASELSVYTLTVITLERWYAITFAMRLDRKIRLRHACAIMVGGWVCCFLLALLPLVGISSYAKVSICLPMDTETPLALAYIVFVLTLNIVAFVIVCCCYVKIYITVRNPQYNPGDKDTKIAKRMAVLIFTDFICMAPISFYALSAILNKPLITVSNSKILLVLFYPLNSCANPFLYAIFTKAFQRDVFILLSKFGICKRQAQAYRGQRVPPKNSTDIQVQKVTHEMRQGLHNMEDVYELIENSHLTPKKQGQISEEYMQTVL
Procedure, shortened: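 TSHR-HEK293 cells in agonist mode, 30 min room-temperature step, then cAMP measured by competitive HTRF (cAMP-d2 with anti-cAMP cryptate) after 1 h at room temperature. Tested at 15 concentrations in triplicate.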

[16] = qHTS RealTime-Glo MT Cell Viability Assay in HEK293 cells - 32 hour (AID 1224868); also: nearly all actives have a fitted effect of over 50% in size; also: potency is read from the fitted curve at half-maximal effect
Procedure, shortened: as §1

[17] = qHTS assay to identify small molecule antagonists of the peroxisome proliferator-activated receptor gamma (PPARg) signaling pathway - cell viability counter screen (AID 743194); details: PPARg-bla HEK293H viability, CellTiter-Glo luminescence, 17 h; Potency: co-treated with 50 nM rosiglitazone unless noted; activity change, negative = cytotoxicity: at 62.6 µM (top of the series), co-treated with 50 nM rosiglitazone unless noted; also: nearly all actives have a fitted effect of over 55% in size; also: potency is read from the fitted curve at half-maximal effect
Procedure, shortened: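 Cytotoxicity counter screen in PPARg-bla HEK293H cells, same wells as reporter assay. Compounds plus 50 nM rosiglitazone (final) for 17 h at 37 C, then viability read by CellTiter-Glo luminescence.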

[18] = target: Estrogen receptor beta (Homo sapiens) (UniProt Q92731); experiment: qHTS assay to identify small molecule antagonists of the estrogen receptor beta (ER-beta) signaling pathway (AID 1259378; active = well fitted inhibition curve with a large enough effect in the signal ratio in the repeat runs, not every such curve was filed as active; inconclusive = weak or mixed curves, or effect the other way; inactive = no such curve, though single readings can be large or run the other way; the % refers to the signal ratio; also: potency is read from the fitted curve at half-maximal effect); details: ER-beta-UAS-bla HEK293T, beta-lactamase FRET ratio, 16 h; activity, negative = inhibition: at 92.4 µM (top of the series) unless noted
Sequence of UniProt Q92731 (Q92731 whole entry, looked up): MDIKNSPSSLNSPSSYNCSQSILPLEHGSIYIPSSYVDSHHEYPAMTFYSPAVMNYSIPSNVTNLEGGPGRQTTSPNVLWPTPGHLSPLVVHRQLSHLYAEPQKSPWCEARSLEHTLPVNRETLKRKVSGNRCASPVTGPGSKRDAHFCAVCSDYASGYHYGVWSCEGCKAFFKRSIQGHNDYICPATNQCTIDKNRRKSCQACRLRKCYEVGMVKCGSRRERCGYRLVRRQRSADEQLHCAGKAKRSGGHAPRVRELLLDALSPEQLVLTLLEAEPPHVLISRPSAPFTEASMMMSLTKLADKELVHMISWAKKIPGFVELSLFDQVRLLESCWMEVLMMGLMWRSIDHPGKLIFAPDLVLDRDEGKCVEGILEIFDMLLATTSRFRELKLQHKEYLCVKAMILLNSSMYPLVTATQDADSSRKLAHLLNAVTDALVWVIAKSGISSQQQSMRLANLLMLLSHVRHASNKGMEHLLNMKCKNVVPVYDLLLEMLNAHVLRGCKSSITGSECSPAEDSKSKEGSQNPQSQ
Procedure, shortened: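 ER-beta-UAS-bla HEK293T cells in 2% charcoal-stripped FBS medium treated with compound plus 1nM final 17-beta-estradiol for 16 hr at 37C. Beta-lactamase reporter read by FRET substrate fluorescence after 2 hours at room temperature.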

[19] = qHTS assay to identify small molecule antagonists of the estrogen receptor alpha (ER-alpha) signaling pathway using the BG1 cell line (AID 743080; calls by dose curve;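 also: BG1 cells stimulated with 17beta-estradiol alongside compound; % is scaled to controls: 0 for no effect and ±100 for the full control effect; nearly all actives have a fitted effect of over 25% in size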); details: BG1Luc4E2 ERE-luciferase antagonist mode, luminescence; activity change, negative = inhibition: at 70.3 µM (top of the series) unless noted
Procedure, shortened: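 BG1-Luc-4E2 cells (endogenous full-length ER-alpha, stable 4×ERE-luciferase) were starved 5 days in phenol-red-free medium with 10% charcoal-stripped FBS, plated 24 h, then given compound plus 17beta-estradiol for 21.5 h at 37 C; ONE-Glo luminescence read after 30 min.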

[20] = qHTS assay to identify small molecule antagonists of the vitamin D receptor (VDR) signaling pathway - cell viability counter screen (AID 743225); details: VDR-bla HEK293T viability, CellTiter-Glo luminescence, 16 h; viability change, negative = cytotoxic: at 61 µM (top of the series) unless noted; also: nearly all actives have a fitted effect of over 50% in size; also: potency is read from the fitted curve at half-maximal effect
Procedure, shortened: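 Parallel cytotoxicity test: VDR-UAS-bla HEK 293T, 3 nM (final) 1-alpha,25-dihydroxyvitamin D3 with test compound, 16 h, 37C. Endpoint is CellTiter-Glo luminescence in the same wells.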
Tags tell the direction and shape of the fitted curve or compound fluorescence and quenching.

SMILES: CCCN(CCC)C(=O)Cc1c(-c2ccc(Cl)cc2)nc2ccc(Cl)cn12
- Potency [1]: inconclusive: 26.6 µM [cytotoxic]
- Potency [2]: inconclusive: 30.9 µM [inhibitor, partial curve, poor fit]
- Potency [3]: active: 5.35 µM
- Potency [4]: active: 5.35 µM
- Potency [5]: active: 5.35 µM
- Potency [6]: inconclusive: 23.7 µM [cytotoxic]
- Potency [7]: inconclusive: 29.8 µM [cytotoxic, single point]
- Potency [8]: inconclusive: 29.8 µM [activator]

SMILES: COP(=S)(OC)Oc1ccc(S(N)(=O)=O)cc1
- Potency [9]: inactive
- Potency [5]: inactive

SMILES: CCOP(=O)(O)C(N)=O
- Potency [10]: inactive

SMILES: Clc1cccc(N2CCNCC2)c1
- ratio activity, negative = inhibition [11]: inconclusive: 0.772%
- Potency [12]: inconclusive: 10.6 µM [cytotoxic, partial curve]

SMILES: O=S(=O)(c1ccccc1)c1ccccc1
- Potency [13]: inconclusive: 1.23 µM [cytotoxic, single point]
- Potency [14]: inactive
- activation [15]: inconclusive: -32.2%
- Potency [3]: inactive
- Potency [12]: inconclusive: 21.7 µM [cytotoxic, partial curve]

SMILES: CCCCOP(=O)(CCCC)OCCCC
- Potency [16]: inconclusive: 54.9 µM [cytotoxic, single point]
- Potency [3]: inconclusive: 54.9 µM [cytotoxic, single point]
- Potency [4]: inconclusive: 54.9 µM [cytotoxic, single point]
- Potency [5]: inconclusive: 54.9 µM [cytotoxic, single point]
- Potency [7]: inconclusive: 0.243 µM [cytotoxic, single point]

SMILES: ClC1(Cl)C2(Cl)C3(Cl)C4(Cl)C(Cl)(Cl)C5(Cl)C3(Cl)C1(Cl)C5(Cl)C24Cl (centres undefined)
- Potency [17]: inactive
- Potency [14]: inconclusive: 54.9 µM [rising, single point]

SMILES: C[C@H](N)[C@H](O)c1ccc(O)c(O)c1
- Potency [13]: inconclusive: 13.3 µM [cytotoxic, single point]
- Potency [10]: inconclusive: 43.8 µM [cytotoxic, partial curve]
- Potency [3]: inactive
- Potency [18]: inconclusive: 5.96 µM [activator, partial curve, poor fit]

SMILES: CCS(=O)(=O)c1cccnc1S(=O)(=O)NC(=O)Nc1nc(OC)cc(OC)n1
- Potency [15]: inactive
- Potency [8]: inconclusive: 68.6 µM [activator, partial curve, poor fit]

SMILES: BrCC1CO1 (centres undefined)
- Potency [14]: inconclusive: 0.0311 µM [rising, full curve, poor fit]
- Potency [7]: inactive

SMILES: NC(=O)CS(=O)C(c1ccccc1)c1ccccc1 (centres undefined)
- Potency [19]: inactive

SMILES: CC(C)(COCC1CO1)COCC1CO1 (centres undefined)
- Potency [7]: inactive

SMILES: Clc1ccc(Oc2ccccc2)cc1
- Potency [10]: inactive
- Potency [4]: inconclusive: 38.9 µM [cytotoxic, partial curve, poor fit]

SMILES: CC(C)(C)NC[C@H](O)c1ccc(O)cc1Cl
- Potency [15]: active: 0.0084 µM
- Potency [10]: inactive

SMILES: Cc1coc2c1CCC(C)C2 (centres undefined)
- activation [9]: inconclusive: 7.72% [phenotype inactive] [at 95 µM]

SMILES: COc1ccc([N+](=O)[O-])cc1O
- Potency [5]: inactive
- Potency [6]: inactive
- activity, negative = inhibition [18]: inconclusive: 0.0441% [at 42.5 µM]
- Potency [12]: inconclusive: 13.3 µM [rising, single point]

SMILES: CCCCC(=O)Cl
- Potency [17]: inconclusive: 0.622 µM [rising, partial curve]
- Potency [12]: inactive

SMILES: O=C(O)C(O)C(O)C(=O)O (centres undefined)
- Potency [10]: inactive
- Potency [5]: inactive

SMILES: COC(=O)c1ccccc1S(=O)(=O)NC(=O)N(C)c1nc(C)nc(OC)n1
- activation [9]: inconclusive: 3.38% [phenotype inactive] [at 95 µM]
- Potency [17]: inconclusive: 5.31 µM [rising, full curve, poor fit]
- Potency [13]: inactive

SMILES: O=S1(=O)OCCO1
- Potency [11]: inactive
- Potency [14]: inactive
- Potency [10]: inactive

SMILES: O=C(Cl)C(Cl)(Cl)Cl
- Potency [13]: inconclusive: 0.0031 µM [cytotoxic, full curve, poor fit]
- viability change, negative = cytotoxic [20]: inconclusive: 36.4% [at 78.8 µM]
- Potency [16]: inactive
- Potency [7]: inactive

SMILES: CCOc1cccc(C2(N3CCN(c4ccccc4)CC3)CCC(C)CC2)c1 (centres undefined)
- activity change, negative = inhibition [19]: inconclusive: 24.8%
- Potency [15]: inactive
- Potency [12]: inconclusive: 0.433 µM [rising, partial curve, poor fit]

SMILES: ClC(Cl)(Cl)c1ccc(C(Cl)(Cl)Cl)cc1
- Potency [10]: active: 112 µM

SMILES: CC(O)CCl (centres undefined)
- Potency [9]: inactive
- viability change, negative = cytotoxic [14]: inconclusive: 8.6%
- Potency [15]: inactive

SMILES: CN(C)C(=O)Nc1cccc(OC(=O)NC(C)(C)C)c1
- Potency [17]: inconclusive: 61.6 µM [cytotoxic, single point]
- Potency [10]: inactive
- Potency [3]: inactive
- Potency [6]: inactive
- Potency [18]: inactive
- Potency [8]: inconclusive: 48.6 µM [activator, partial curve, poor fit]

SMILES: CC(C)c1ccc(O)cc1
- ratio activity, negative = inhibition [11]: inconclusive: 7.7%
- Potency [20]: inconclusive: 2.45 µM [cytotoxic, partial curve, poor fit]
- Potency [10]: inconclusive: 45 µM [rising, single point]

SMILES: CNCC(=O)c1ccc(O)c(O)c1
- Potency [9]: inactive
- Potency [13]: inconclusive: 0.0211 µM [cytotoxic, full curve, poor fit]
- Potency [15]: active: 2.37 µM
- Potency [10]: inconclusive: 55.2 µM [falling, single point]
- Potency [8]: inactive
